# Experimental data reported in patent US20210238308A1 (Chugai, published 2021).
# T1: PRYSPRY domain of mouse TRIM21 with N-terminal 6xHis tag (mouse)
# T1 construct: Expressed in E. coli; also called mTRIM21; mouse TRIM21.PRYSPRY
# T1 chain: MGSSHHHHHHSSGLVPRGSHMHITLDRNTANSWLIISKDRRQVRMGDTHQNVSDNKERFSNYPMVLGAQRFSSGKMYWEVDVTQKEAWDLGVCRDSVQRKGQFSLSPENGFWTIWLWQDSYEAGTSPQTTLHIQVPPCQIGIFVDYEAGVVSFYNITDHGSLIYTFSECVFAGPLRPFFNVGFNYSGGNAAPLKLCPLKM
# T2: PRYSPRY domain of human TRIM21 with N-terminal 6xHis tag (human)
# T2 construct: Expressed in E. coli; also called hTRIM21; human TRIM21.PRYSPRY
# T2 chain: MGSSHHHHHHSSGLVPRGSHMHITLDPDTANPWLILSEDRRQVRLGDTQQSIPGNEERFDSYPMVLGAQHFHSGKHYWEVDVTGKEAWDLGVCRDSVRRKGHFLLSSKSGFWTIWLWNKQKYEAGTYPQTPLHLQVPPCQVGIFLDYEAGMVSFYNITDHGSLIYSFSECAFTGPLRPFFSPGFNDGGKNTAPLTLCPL
# B1: MRAH-G1d/MRAL-KT0 M428A (antibody, human IgG1, kappa)
# heavy: QVQLQESGPGLVRPSQTLSLTCTVSGYSITSDHAWSWVRQPPGRGLEWIGYISYSGITTYNPSLKSRVTMLRDTSKNQFSLRLSSVTAADTAVYYCARSLARTTAMDYWGQGSLVTVSS[human IgG1 constant region with M428A (EU numbers) omitted here]
# light: DIQMTQSPSSLSASVGDRVTITCRASQDISSYLNWYQQKPGKAPKLLIYYTSRLHSGVPSRFSGSGSGTDFTFTISSLQPEDIATYYCQQGNTLPYTFGQGTKVEIKRTVAAPSVFIFPPSDEQLKSGTASVVCLLNNFYPREAKVQWKVDNALQSGNSQESVTEQDSKDSTYSLSSTLTLSKADYEKHKVYACEVTHQGLSSPVTKSFNRGEC
# notes: copies: 2 + 2
# B2: MRAH-G1d/MRAL-KT0 M428D (antibody, human IgG1, kappa)
# heavy: QVQLQESGPGLVRPSQTLSLTCTVSGYSITSDHAWSWVRQPPGRGLEWIGYISYSGITTYNPSLKSRVTMLRDTSKNQFSLRLSSVTAADTAVYYCARSLARTTAMDYWGQGSLVTVSS[human IgG1 constant region with M428D (EU numbers) omitted here]
# light: B1 light
# notes: copies: 2 + 2
# B3: MRAH-G1d/MRAL-KT0 M428E (antibody, human IgG1, kappa)
# heavy: QVQLQESGPGLVRPSQTLSLTCTVSGYSITSDHAWSWVRQPPGRGLEWIGYISYSGITTYNPSLKSRVTMLRDTSKNQFSLRLSSVTAADTAVYYCARSLARTTAMDYWGQGSLVTVSS[human IgG1 constant region with M428E (EU numbers) omitted here]
# light: B1 light
# notes: copies: 2 + 2
# B4: MRAH-G1d/MRAL-KT0 M428G (antibody, human IgG1, kappa)
# heavy: QVQLQESGPGLVRPSQTLSLTCTVSGYSITSDHAWSWVRQPPGRGLEWIGYISYSGITTYNPSLKSRVTMLRDTSKNQFSLRLSSVTAADTAVYYCARSLARTTAMDYWGQGSLVTVSS[human IgG1 constant region with M428G (EU numbers) omitted here]
# light: B1 light
# notes: copies: 2 + 2
# B5: MRAH-G1d/MRAL-KT0 M428H (antibody, human IgG1, kappa)
# heavy: QVQLQESGPGLVRPSQTLSLTCTVSGYSITSDHAWSWVRQPPGRGLEWIGYISYSGITTYNPSLKSRVTMLRDTSKNQFSLRLSSVTAADTAVYYCARSLARTTAMDYWGQGSLVTVSS[human IgG1 constant region with M428H (EU numbers) omitted here]
# light: B1 light
# notes: copies: 2 + 2
# B6: MRAH-G1d/MRAL-KT0 M428I (antibody, human IgG1, kappa)
# heavy: QVQLQESGPGLVRPSQTLSLTCTVSGYSITSDHAWSWVRQPPGRGLEWIGYISYSGITTYNPSLKSRVTMLRDTSKNQFSLRLSSVTAADTAVYYCARSLARTTAMDYWGQGSLVTVSS[human IgG1 constant region with M428I (EU numbers) omitted here]
# light: B1 light
# notes: copies: 2 + 2
# B7: MRAH-G1d/MRAL-KT0 M428K (antibody, human IgG1, kappa)
# heavy: QVQLQESGPGLVRPSQTLSLTCTVSGYSITSDHAWSWVRQPPGRGLEWIGYISYSGITTYNPSLKSRVTMLRDTSKNQFSLRLSSVTAADTAVYYCARSLARTTAMDYWGQGSLVTVSS[human IgG1 constant region with M428K (EU numbers) omitted here]
# light: B1 light
# notes: copies: 2 + 2
# B8: MRAH-G1d/MRAL-KT0 M428N (antibody, human IgG1, kappa)
# heavy: QVQLQESGPGLVRPSQTLSLTCTVSGYSITSDHAWSWVRQPPGRGLEWIGYISYSGITTYNPSLKSRVTMLRDTSKNQFSLRLSSVTAADTAVYYCARSLARTTAMDYWGQGSLVTVSS[human IgG1 constant region with M428N (EU numbers) omitted here]
# light: B1 light
# notes: copies: 2 + 2
# B9: MRAH-G1d/MRAL-KT0 M428P (antibody, human IgG1, kappa)
# heavy: QVQLQESGPGLVRPSQTLSLTCTVSGYSITSDHAWSWVRQPPGRGLEWIGYISYSGITTYNPSLKSRVTMLRDTSKNQFSLRLSSVTAADTAVYYCARSLARTTAMDYWGQGSLVTVSS[human IgG1 constant region with M428P (EU numbers) omitted here]
# light: B1 light
# notes: copies: 2 + 2
# B10: MRAH-G1d/MRAL-KT0 M428Q (antibody, human IgG1, kappa)
# heavy: QVQLQESGPGLVRPSQTLSLTCTVSGYSITSDHAWSWVRQPPGRGLEWIGYISYSGITTYNPSLKSRVTMLRDTSKNQFSLRLSSVTAADTAVYYCARSLARTTAMDYWGQGSLVTVSS[human IgG1 constant region with M428Q (EU numbers) omitted here]
# light: B1 light
# notes: copies: 2 + 2
# B11: MRAH-G1d/MRAL-KT0 M428S (antibody, human IgG1, kappa)
# heavy: QVQLQESGPGLVRPSQTLSLTCTVSGYSITSDHAWSWVRQPPGRGLEWIGYISYSGITTYNPSLKSRVTMLRDTSKNQFSLRLSSVTAADTAVYYCARSLARTTAMDYWGQGSLVTVSS[human IgG1 constant region with M428S (EU numbers) omitted here]
# light: B1 light
# notes: copies: 2 + 2
# B12: MRAH-G1d/MRAL-KT0 M428T (antibody, human IgG1, kappa)
# heavy: QVQLQESGPGLVRPSQTLSLTCTVSGYSITSDHAWSWVRQPPGRGLEWIGYISYSGITTYNPSLKSRVTMLRDTSKNQFSLRLSSVTAADTAVYYCARSLARTTAMDYWGQGSLVTVSS[human IgG1 constant region with M428T (EU numbers) omitted here]
# light: B1 light
# notes: copies: 2 + 2
# B13: MRAH-G1d/MRAL-KT0 M428V (antibody, human IgG1, kappa)
# heavy: QVQLQESGPGLVRPSQTLSLTCTVSGYSITSDHAWSWVRQPPGRGLEWIGYISYSGITTYNPSLKSRVTMLRDTSKNQFSLRLSSVTAADTAVYYCARSLARTTAMDYWGQGSLVTVSS[human IgG1 constant region with M428V (EU numbers) omitted here]
# light: B1 light
# notes: copies: 2 + 2
# B14: MRAH-G1d/MRAL-KT0 M428W (antibody, human IgG1, kappa)
# heavy: QVQLQESGPGLVRPSQTLSLTCTVSGYSITSDHAWSWVRQPPGRGLEWIGYISYSGITTYNPSLKSRVTMLRDTSKNQFSLRLSSVTAADTAVYYCARSLARTTAMDYWGQGSLVTVSS[human IgG1 constant region with M428W (EU numbers) omitted here]
# light: B1 light
# notes: copies: 2 + 2
# Biological target: T1, PRYSPRY domain of mouse TRIM21 with …
# Assay: SPR, Protein L capture
row,Binder,mTRIM21 binding level ratio (variant/control antibody)
1,B1,2.25
2,B2,2.7
3,B3,1.47
4,B4,2.24
5,B5,1.59
6,B6,2
7,B7,0.878
8,B8,2.75
9,B9,1.8
10,B10,2.02
11,B11,3.24
12,B12,3.41
13,B13,2.38
14,B14,0.758

# Biological target: T3, human FcRn (human, UniProt P55899 part only; P61769 part only, limits assumed)
# T3 construct: also called hFcRn
# Assay: SPR, Protein L capture
# T3 sequence (P55899 24-290 limits assumed, form in doubt, chain 1 of 2): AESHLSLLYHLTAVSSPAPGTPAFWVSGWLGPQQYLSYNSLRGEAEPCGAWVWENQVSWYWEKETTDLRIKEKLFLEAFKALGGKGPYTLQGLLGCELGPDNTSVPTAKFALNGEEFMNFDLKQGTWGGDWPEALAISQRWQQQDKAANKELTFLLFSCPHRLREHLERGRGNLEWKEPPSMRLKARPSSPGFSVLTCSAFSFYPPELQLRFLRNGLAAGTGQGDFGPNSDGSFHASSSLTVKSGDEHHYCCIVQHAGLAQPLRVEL
# T3 sequence (P61769 21-119 limits assumed, form in doubt, chain 2 of 2, further chain): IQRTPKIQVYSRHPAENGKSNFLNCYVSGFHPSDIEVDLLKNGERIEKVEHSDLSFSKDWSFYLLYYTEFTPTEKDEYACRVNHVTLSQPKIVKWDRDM
row,Binder,hFcRn binding level ratio (variant/control antibody)
1,B1,0.02
2,B2,0.24
3,B3,0.32
4,B4,0.32
5,B5,0.16
6,B6,0
7,B7,0.31
8,B8,0.52
9,B9,0
10,B10,0.3
11,B11,0.19
12,B12,0.41
13,B13,0.57
14,B14,0.66

# Biological target: T2, PRYSPRY domain of human TRIM21 with …
# Assay: SPR, Protein L capture
row,Binder,hTRIM21 binding level ratio (variant/control antibody)
1,B1,0.593
2,B2,1.27
3,B3,1.16
4,B4,0.674
5,B5,1.09
6,B6,0.935
7,B7,0.66
8,B8,0.891
9,B9,0.476
10,B10,0.919
11,B11,0.826
12,B12,0.951
13,B13,1.05
14,B14,1.04
